Data taken from article PMC4242493.
This is one part of the list. The list includes weakly bound sequences.

target: MaxL homodimer (UniProt P61244); assay: universal protein-binding microarray (PBM); settings: PBS-based mixture, 10 nM His-tagged protein dimer, 2% milk, 200 ng/uL BSA, 50 ng/uL salmon testes DNA, 0.02% TX-100; detection with Alexa 488 anti-His …; high values mean tight binding; most listed sequences are background and not binding sites; double strand, one strand shown
UniProt P61244, sequence (P61244 whole entry): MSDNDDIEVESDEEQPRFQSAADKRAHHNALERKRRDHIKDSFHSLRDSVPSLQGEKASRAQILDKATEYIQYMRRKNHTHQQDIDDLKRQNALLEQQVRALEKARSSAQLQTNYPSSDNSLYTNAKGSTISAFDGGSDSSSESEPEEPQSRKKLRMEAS

Row | Sequence | binding signal (normalized occupancy)
1 | AGAGGCTA | 0.0745
2 | AGGACAGG | 0.0726
3 | CGCGTCAA | 0.0723
4 | CGCAATGA | 0.0773
5 | ACATATAG | 0.0847
6 | CAAAGTGA | 0.0695
7 | CTACCTAA | 0.0774
8 | TAGATCAA | 0.0749
9 | CGGATCAA | 0.0731
10 | CCGGAGGC | 0.0637
11 | CCCGAGAG | 0.0685
12 | AGCGACTG | 0.0704
13 | CGTTAACG | 0.079
14 | ATATACCA | 0.0951
15 | ACATGATA | 0.0928
16 | GGGCGAGA | 0.0729
17 | GTTATGTA | 0.0821
18 | ATCTTGGA | 0.0766
19 | TCGCGCGA | 0.0803
20 | AGTTCTAC | 0.0751
21 | GGGAGGCA | 0.0747
22 | GTCCCTAA | 0.0752
23 | AATCTTGA | 0.0791
24 | ACTACTCC | 0.073
25 | CATCATCG | 0.0852

Row | Sequence | binding signal (normalized occupancy)
26 | AGACCATG | 0.0878
27 | CTGAATTC | 0.0723
28 | CGCTAACC | 0.0691
29 | GATAACGA | 0.0818
30 | CAAGCCAA | 0.0745
31 | CAGTTCCC | 0.0686
32 | AAATGTCT | 0.0763
33 | AATATGAT | 0.0849
34 | AATGACTG | 0.0771
35 | CAGTCTCC | 0.0696
36 | GCCCAAGA | 0.0685
37 | GATCTAGC | 0.07
38 | CCCAGAGA | 0.0703
39 | GTGATTGA | 0.0802
40 | ATGTGTGG | 0.0891
41 | CTGCCCTC | 0.0714
42 | AGGAGACT | 0.073
43 | ATGAGCTG | 0.074
44 | ACGGACAT | 0.0801
45 | AAGGAGCT | 0.0694
46 | CGACGGCG | 0.0722
47 | CTGAATTA | 0.0751
48 | ACTTGACA | 0.0819
49 | CTGCTTAA | 0.0703
50 | GGAAAAAC | 0.0727

Row | Sequence | binding signal (normalized occupancy)
51 | AATGAAGA | 0.0792
52 | AATTCCCC | 0.078
53 | CAGAGGCA | 0.0697
54 | GAGATGCC | 0.0786
55 | AGAGTAGC | 0.0731
56 | AAGATCTG | 0.077
57 | GTTTATTA | 0.0733
58 | CAGCCTAA | 0.0729
59 | GTCAAGAC | 0.0749
60 | ATGAGAAA | 0.0743
61 | GAATTTAA | 0.0702
62 | ACAATATG | 0.0881
63 | CAATGGTA | 0.0758
64 | GTTGGTCA | 0.0793
65 | AGCGATCA | 0.0717
66 | AATAGGCA | 0.0804
67 | ATGCGTGG | 0.106
68 | ATGACTCA | 0.0787
69 | CTGGATAA | 0.0734
70 | AAGGCCCT | 0.072
71 | TGAGCTCA | 0.0709
72 | ACTTAGCC | 0.0726
73 | AGGTTAAC | 0.0744
74 | GTGACTGA | 0.0789
75 | CACTTAAA | 0.0743

Row | Sequence | binding signal (normalized occupancy)
76 | AGCTGCGG | 0.0673
77 | ACGCACAC | 0.0922
78 | CAAGCCGA | 0.0713
79 | CCTCCCGC | 0.076
80 | GCACATGC | 0.159
81 | ACGTTCTA | 0.0776
82 | CAGGTGGC | 0.0954
83 | GGACTACA | 0.0806
84 | GTAGGACA | 0.0708
85 | ACGTGTCT | 0.0997
86 | CCTTCGGC | 0.0648
87 | CACACCGG | 0.081
88 | CTGCAATC | 0.075
89 | AACCCAAA | 0.0704
90 | GGTATTAA | 0.0775
91 | AACCAGCG | 0.0716
92 | CATCCGAC | 0.075
93 | AACCCGCG | 0.074
94 | AGATATGC | 0.0791
95 | CGTAGAAG | 0.0721
96 | ATGTCACC | 0.08
97 | AGCAATTG | 0.0755
98 | GCACCCAA | 0.0723
99 | AGCATGTG | 0.164
100 | ACGAAGGG | 0.0698

Row | Sequence | binding signal (normalized occupancy)
101 | GTAGCTCA | 0.0764
102 | TACCTCCA | 0.0756
103 | CATTGCGA | 0.0768
104 | GAGCCTCA | 0.0757
105 | GTTGCTCA | 0.0732
106 | GTTTTTAA | 0.0713
107 | AAATGGAC | 0.0759
108 | GGCGTGGA | 0.0968
109 | ATGCCCTC | 0.0793
110 | ACATTGCT | 0.0763
111 | AATCGCCT | 0.0729
112 | GTTCGTCA | 0.0818
113 | CCATTTAC | 0.0773
114 | CAGCCATC | 0.0855
115 | AGAACAAC | 0.0696
116 | ACAATCCC | 0.0814
117 | CCCGGTTC | 0.0725
118 | CGCGGTGA | 0.0732
119 | AACTTAGC | 0.0701
120 | GCGAGGTA | 0.0769
121 | CCCGACAC | 0.0766
122 | CATCTCTA | 0.0817
123 | TCAACCCA | 0.0727
124 | ACTTGCTC | 0.0749
125 | TCCTGTAA | 0.0741

Row | Sequence | binding signal (normalized occupancy)
126 | CCTTGGCG | 0.0694
127 | CCCACACC | 0.0898
128 | ACGCATGC | 0.124
129 | GCCATGAA | 0.0745
130 | CAATACGC | 0.074
131 | AATCAACG | 0.074
132 | GACCTAGA | 0.0723
133 | CCGAGGCA | 0.0758
134 | AATAAAAT | 0.0744
135 | CGAACCCA | 0.074
136 | GTACTTAA | 0.0773
137 | GATTTTCC | 0.0699
138 | CGTCGGTC | 0.0723
139 | CCCCAGAC | 0.072
140 | AGGGGGAA | 0.0821
141 | ACGCGAAA | 0.0695
142 | AGAGGAGC | 0.0702
143 | CCCTGCAG | 0.0741
144 | CGAGCCCG | 0.0709
145 | ATGACGAA | 0.08
146 | CCGAACAC | 0.0746
147 | TCAATAGA | 0.0745
148 | AGAAAGAA | 0.0717
149 | CACCGCAG | 0.0708
150 | ATGTAGGG | 0.0801

Row | Sequence | binding signal (normalized occupancy)
151 | ACGCAGAC | 0.0795
152 | ACGATACC | 0.0802
153 | GCCCGAAA | 0.0716
154 | CCAAAGCA | 0.0743
155 | AAGCCATT | 0.0716
156 | TCACCTAA | 0.071
157 | ATTAAGAC | 0.0768
158 | ACTGTCTA | 0.0741
159 | CGCGGAAC | 0.0717
160 | AGCACATA | 0.0807
161 | CGCCTGGA | 0.0737
162 | CGAAACCC | 0.0797
163 | AAGGGCTA | 0.0706
164 | CGAAGACC | 0.0732
165 | CTCACGCA | 0.0822
166 | CCCTATTA | 0.0764
167 | ATTGGTAG | 0.0752
168 | CCGGTTAC | 0.0684
169 | AAAGGCGC | 0.0655
170 | CCCGGTGC | 0.075
171 | GCAACCAC | 0.0744
172 | ACGCTCTG | 0.0729
173 | AACGTAGT | 0.071
174 | ATCTAATA | 0.0811
175 | ATATGTGA | 0.0878

Row | Sequence | binding signal (normalized occupancy)
176 | ACGTTAGA | 0.0821
177 | TATGGTGA | 0.0762
178 | AAGCTGTG | 0.0731
179 | ATTTAGGA | 0.074
180 | AAGTACTA | 0.075
181 | AATCTGCG | 0.0705
182 | AGCGAAAT | 0.0722
183 | GTATCAAA | 0.0766
184 | GACGGCCC | 0.0691
185 | AAGCCGCA | 0.0725
186 | ATAGTAGA | 0.0855
187 | CACAGCGG | 0.0723
188 | CATCCTAC | 0.0829
189 | AAGTGCAT | 0.085
190 | AATAAGAA | 0.0768
191 | AACGCAGC | 0.0688
192 | GCGACCAA | 0.0697
193 | ACGTCAAC | 0.0789
194 | AGCGAACG | 0.0697
195 | GGATCCGA | 0.0733
196 | ATAGCGGG | 0.0752
197 | ATAGGGTG | 0.0803
198 | GGCGGTAA | 0.0743
199 | ATATAACG | 0.0788
200 | GGTTGTAC | 0.0749

Row | Sequence | binding signal (normalized occupancy)
201 | GCTGAGAC | 0.072
202 | ATGAAACG | 0.0811
203 | GAGGAATA | 0.0804
204 | AGAAGGTG | 0.0734
205 | GGCACGCC | 0.0877
206 | CACAAGAA | 0.0762
207 | AATGAATC | 0.0768
208 | AGTGGTAT | 0.0779
209 | AGTGATCA | 0.0742
210 | AGGGGCAC | 0.0757
211 | GATTGAAA | 0.0807
212 | AAGCGTCG | 0.0714
213 | AGGAAGTC | 0.0746
214 | ACGATTGG | 0.0798
215 | ATTGATCA | 0.0751
216 | CTAGGCAA | 0.0665
217 | GATGGGTA | 0.0854
218 | CCTGATCC | 0.0777
219 | TTAGCTAA | 0.0733
